# The list shows a part of the results.
# B1: CVN-E41G (protein)
# chain: MHHHHHHENLYFQSGNFSQACYNSAIQGSVLTSTCIRTNGGYNTSSIDLNSVIANVDGSLKWQGSNFIETCRNTQLAGSSELAAECKTRAQQFVSTKINLDDHIAAIDGTLKYE
# Assays:
# Experiment in all cases: glycan array binding signal (z-score within array); higher = stronger binding
# Conditions in all cases: glycan notation: IUPAC condensed, linker removed; mutation: E41A
# [1] = molecular target: Gal(a1-6)Glc
# Procedure, shortened: (§1)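 From the Consortium for Functional Glycomics database, 3228 arrays were curated, keeping only those whose protein sequence was available. Binding is given as a within-array Z-score averaged across arrays sharing a protein sequence and across linkers. Negative Z-scores can be read as non-binding.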
# [2] = molecular target: Gal(b1-2)Gal
# Procedure, shortened: as §1
# [3] = molecular target: Gal(b1-3)Gal
# Procedure, shortened: as §1
# [4] = molecular target: Gal(b1-3)Gal(b1-4)GlcNAc
# Procedure, shortened: as §1
# [5] = molecular target: Gal(b1-3)GalNAc
# Procedure, shortened: as §1
# [6] = molecular target: Gal(b1-3)GalNAc(a1-3)[Fuc(a1-2)]Gal(b1-4)Glc
# Procedure, shortened: as §1
# [7] = molecular target: Gal(b1-3)GalNAc(a1-3)[Fuc(a1-2)]Gal(b1-4)GlcNAc
# Procedure, shortened: as §1
# [8] = molecular target: Gal(b1-3)GalNAc(b1-3)Gal
# Procedure, shortened: as §1
# [9] = molecular target: Gal(b1-3)GalNAc(b1-3)Gal(a1-4)Gal(b1-4)Glc
# Procedure, shortened: as §1
# [10] = molecular target: Gal(b1-3)GalNAc(b1-4)Gal(b1-4)Glc
# Procedure, shortened: as §1
# [11] = molecular target: Gal(b1-3)GalNAc(b1-4)[Neu5Ac(a2-3)]Gal(b1-4)Glc
# Procedure, shortened: as §1
# [12] = molecular target: Gal(b1-3)GlcNAc
# Procedure, shortened: as §1
# [13] = molecular target: Gal(b1-3)GlcNAc(a1-3)Gal(b1-4)GlcNAc
# Procedure, shortened: as §1
# [14] = molecular target: Gal(b1-3)GlcNAc(a1-6)Gal(b1-4)GlcNAc
# Procedure, shortened: as §1
# [15] = molecular target: Gal(b1-3)GlcNAc(b1-2)Man
# Procedure, shortened: as §1
# [16] = molecular target: Gal(b1-3)GlcNAc(b1-2)Man(a1-3)[Gal(b1-3)GlcNAc(b1-2)Man(a1-6)]Man(b1-4)GlcNAc(b1-4)GlcNAc
# Procedure, shortened: as §1
# [17] = molecular target: Gal(b1-3)GlcNAc(b1-2)Man(a1-3)[Gal(b1-3)GlcNAc(b1-2)Man(a1-6)]Man(b1-4)GlcNAc(b1-4)[Fuc(a1-6)]GlcNAc
# Procedure, shortened: as §1
# [18] = molecular target: Gal(b1-3)GlcNAc(b1-2)Man(a1-3)[GlcNAc(b1-4)][Gal(b1-3)GlcNAc(b1-2)Man(a1-6)]Man(b1-4)GlcNAc(b1-4)GlcNAc
# Procedure, shortened: as §1
# [19] = molecular target: Gal(b1-3)GlcNAc(b1-2)[Gal(b1-3)GlcNAc(b1-6)]Man(a1-6)[Gal(b1-3)GlcNAc(b1-2)Man(a1-3)]Man(b1-4)GlcNAc(b1-4)GlcNAc
# Procedure, shortened: as §1
# [20] = molecular target: Gal(b1-3)GlcNAc(b1-3)Gal(b1-3)GlcNAc
# Procedure, shortened: as §1
# [21] = molecular target: Gal(b1-3)GlcNAc(b1-3)Gal(b1-4)Glc
# Procedure, shortened: as §1
# [22] = molecular target: Gal(b1-3)GlcNAc(b1-3)Gal(b1-4)GlcNAc
# Procedure, shortened: as §1
# [23] = molecular target: Gal(b1-3)GlcNAc(b1-3)Gal(b1-4)GlcNAc(b1-2)Man(a1-3)[Gal(b1-3)GlcNAc(b1-3)Gal(b1-4)GlcNAc(b1-2)Man(a1-6)]Man(b1-4)GlcNAc(b1-4)GlcNAc
# Procedure, shortened: as §1
# [24] = molecular target: Gal(b1-3)GlcNAc(b1-3)Gal(b1-4)GlcNAc(b1-2)[Gal(b1-3)GlcNAc(b1-3)Gal(b1-4)GlcNAc(b1-6)]Man(a1-6)[Gal(b1-3)GlcNAc(b1-3)Gal(b1-4)GlcNAc(b1-2)Man(a1-3)]Man(b1-4)GlcNAc(b1-4)[Fuc(a1-6)]GlcNAc
# Procedure, shortened: as §1
# [25] = molecular target: Gal(b1-3)GlcNAc(b1-3)Gal(b1-4)GlcNAc(b1-3)Gal(b1-4)GlcNAc(b1-2)[Gal(b1-3)GlcNAc(b1-3)Gal(b1-4)GlcNAc(b1-3)Gal(b1-4)GlcNAc(b1-6)]Man(a1-6)[Gal(b1-3)GlcNAc(b1-3)Gal(b1-4)GlcNAc(b1-3)Gal(b1-4)GlcNAc(b1-2)Man(a1-3)]Man(b1-4)GlcNAc(b1-4)[Fuc(a1-6)]GlcNAc
# Procedure, shortened: as §1
# [26] = molecular target: Gal(b1-3)GlcNAc(b1-3)Gal(b1-4)GlcNAc(b1-6)[Gal(b1-3)GlcNAc(b1-3)]Gal(b1-4)Glc
# Procedure, shortened: as §1
# [27] = molecular target: Gal(b1-3)GlcNAc(b1-3)Gal(b1-4)[Fuc(a1-3)]GlcNAc
# Procedure, shortened: as §1
# [28] = molecular target: Gal(b1-3)GlcNAc(b1-3)Gal(b1-4)[Fuc(a1-3)]GlcNAc(b1-6)[Gal(b1-3)GlcNAc(b1-3)]Gal(b1-4)Glc
# Procedure, shortened: as §1
# [29] = molecular target: Gal(b1-3)GlcNAc(b1-3)GalNAc
# Procedure, shortened: as §1
# [30] = molecular target: Gal(b1-3)GlcNAc(b1-6)Gal(b1-4)GlcNAc
# Procedure, shortened: as §1
# [31] = molecular target: Gal(b1-3)GlcNAc(b1-6)GalNAc
# Procedure, shortened: as §1
# [32] = molecular target: Gal(b1-3)GlcNAc(b1-6)[Gal(b1-3)]GalNAc
# Procedure, shortened: as §1
# [33] = molecular target: Gal(b1-3)GlcNAc6S
# Procedure, shortened: as §1
# [34] = molecular target: Gal(b1-3)[Fuc(a1-4)]GlcNAc
# Procedure, shortened: as §1
# [35] = molecular target: Gal(b1-3)[Fuc(a1-4)]GlcNAc(b1-2)Man
# Procedure, shortened: as §1
# [36] = molecular target: Gal(b1-3)[Fuc(a1-4)]GlcNAc(b1-2)Man(a1-3)[Gal(b1-3)[Fuc(a1-4)]GlcNAc(b1-2)Man(a1-6)]Man(b1-4)GlcNAc(b1-4)[Fuc(a1-6)]GlcNAc
# Procedure, shortened: as §1
# [37] = molecular target: Gal(b1-3)[Fuc(a1-4)]GlcNAc(b1-3)Gal(b1-3)[Fuc(a1-4)]GlcNAc
# Procedure, shortened: as §1
# [38] = molecular target: Gal(b1-3)[Fuc(a1-4)]GlcNAc(b1-3)Gal(b1-4)[Fuc(a1-3)]GlcNAc
# Procedure, shortened: as §1
# [39] = molecular target: Gal(b1-3)[Fuc(a1-4)]GlcNAc(b1-6)GalNAc
# Procedure, shortened: as §1
# [40] = molecular target: Gal(b1-3)[GlcNAc(b1-6)]GalNAc
# Procedure, shortened: as §1
# [41] = molecular target: Gal(b1-3)[Neu5Ac(a2-6)]GalNAc
# Procedure, shortened: as §1
# [42] = molecular target: Gal(b1-3)[Neu5Ac(a2-6)]GlcNAc(b1-4)Gal(b1-4)Glc
# Procedure, shortened: as §1
# [43] = molecular target: Gal(b1-3)[Neu5Ac(b2-6)]GalNAc
# Procedure, shortened: as §1
# [44] = molecular target: Gal(b1-4)Gal
# Procedure, shortened: as §1
# [45] = molecular target: Gal(b1-4)GalNAc(a1-3)[Fuc(a1-2)]Gal(b1-4)GlcNAc
# Procedure, shortened: as §1
binder,measurement,setting,value
B1,glycan array binding signal (z-score),[1],-0.197
same,glycan array binding signal (z-score),[2],-0.195
same,glycan array binding signal (z-score),[3],-0.214
same,glycan array binding signal (z-score),[4],-0.227
same,glycan array binding signal (z-score),[5],-0.031
same,glycan array binding signal (z-score),[6],-0.002
same,glycan array binding signal (z-score),[7],-0.148
same,glycan array binding signal (z-score),[8],-0.08
same,glycan array binding signal (z-score),[9],-0.198
same,glycan array binding signal (z-score),[10],-0.211
same,glycan array binding signal (z-score),[11],-0.196
same,glycan array binding signal (z-score),[12],-0.214
same,glycan array binding signal (z-score),[13],-0.24
same,glycan array binding signal (z-score),[14],-0.194
same,glycan array binding signal (z-score),[15],-0.089
same,glycan array binding signal (z-score),[16],0.128
same,glycan array binding signal (z-score),[17],-0.149
same,glycan array binding signal (z-score),[18],0.791
same,glycan array binding signal (z-score),[19],0.54
same,glycan array binding signal (z-score),[20],-0.207
same,glycan array binding signal (z-score),[21],-0.163
same,glycan array binding signal (z-score),[22],-0.216
same,glycan array binding signal (z-score),[23],0.194
same,glycan array binding signal (z-score),[24],0.977
same,glycan array binding signal (z-score),[25],0.792
same,glycan array binding signal (z-score),[26],1.14
same,glycan array binding signal (z-score),[27],-0.234
same,glycan array binding signal (z-score),[28],-0.208
same,glycan array binding signal (z-score),[29],-0.171
same,glycan array binding signal (z-score),[30],-0.121
same,glycan array binding signal (z-score),[31],-0.225
same,glycan array binding signal (z-score),[32],-0.091
same,glycan array binding signal (z-score),[33],-0.196
same,glycan array binding signal (z-score),[34],-0.176
same,glycan array binding signal (z-score),[35],-0.138
same,glycan array binding signal (z-score),[36],0.49
same,glycan array binding signal (z-score),[37],-0.092
same,glycan array binding signal (z-score),[38],-0.204
same,glycan array binding signal (z-score),[39],-0.147
same,glycan array binding signal (z-score),[40],-0.167
same,glycan array binding signal (z-score),[41],-0.17
same,glycan array binding signal (z-score),[42],-0.189
same,glycan array binding signal (z-score),[43],-0.243
same,glycan array binding signal (z-score),[44],-0.215
same,glycan array binding signal (z-score),[45],-0.22

# Reference: the supplement of paper PMC8728848
